# Measurements from the supplement of paper PMC6451100.
# The list shows a part of the results. These are enrichments in a pooled selection; single values are uncertain.
# Test system: Drosophila AGO1 (endogenous, S2-R+ lysate)
# Assay: AGO1 loading enrichment factor (IP read count / input read count, not library-size normalised) (ratio); higher = more efficient loading into AGO1
# Details: randomized region: 5' 5N of miR-317 loop
# Method: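 HISSA: 5'-phosphorylated, 32P-labelled 20-nt ssRNA oligos (miR-317 loop, first 5 nt randomized, constant 3' part TGAAATGCAAGCAAG as printed in methods; DNA letters for RNA) incubated 1 h at 25°C in S2-R+ cell lysate. Endogenous AGO1 was immunopurified with anti-AGO1 and bound oligos were sequenced after splinted ligation.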
# 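Further: S2-R+ lysate came from cells stably expressing FLAG-tagged AGO2, enrichment per 5N variant computed with FASTAptamer, reads lacking the constant 3′ segment discarded.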
row,Sequence,AGO1 loading enrichment factor
1,GGGTATGAAATGCAAGCAAG,0.216
2,CGCTCTGAAATGCAAGCAAG,0.0313
3,TGACATGAAATGCAAGCAAG,0.26
4,AGTAGTGAAATGCAAGCAAG,0.0927
5,TCGTGTGAAATGCAAGCAAG,0.218
6,TGCAGTGAAATGCAAGCAAG,0.0388
7,ATGAATGAAATGCAAGCAAG,0.421
8,TACTGTGAAATGCAAGCAAG,0.658
9,ATCCCTGAAATGCAAGCAAG,0.463
10,CGTCCTGAAATGCAAGCAAG,0.00539
11,GCACATGAAATGCAAGCAAG,0.0369
12,CCAAGTGAAATGCAAGCAAG,0.0628
13,GGCAGTGAAATGCAAGCAAG,0.045
14,CGTACTGAAATGCAAGCAAG,0.105
15,ACACTTGAAATGCAAGCAAG,0.0116
16,GGCCGTGAAATGCAAGCAAG,0.194
17,ACTCGTGAAATGCAAGCAAG,0.0663
18,GTTTATGAAATGCAAGCAAG,0.114
19,CGCAATGAAATGCAAGCAAG,0.0745
20,GCACCTGAAATGCAAGCAAG,0.201
21,GTCCATGAAATGCAAGCAAG,0.139
22,ATGGGTGAAATGCAAGCAAG,0.468
23,GTAAATGAAATGCAAGCAAG,0.133
24,TTTCCTGAAATGCAAGCAAG,0.149
25,CCTACTGAAATGCAAGCAAG,0.137
26,GGATGTGAAATGCAAGCAAG,0.512
27,GGTTGTGAAATGCAAGCAAG,0.0348

row,Sequence,AGO1 loading enrichment factor
1,ACACCTGAAATGCAAGCAAG,0.369
2,ATTAGTGAAATGCAAGCAAG,0.115
3,ACACGTGAAATGCAAGCAAG,0.101
4,TGACGTGAAATGCAAGCAAG,0.544
5,CCGGTTGAAATGCAAGCAAG,0.0802
6,GTTGTTGAAATGCAAGCAAG,0.228
7,CCGTGTGAAATGCAAGCAAG,0.0201
8,CGTCGTGAAATGCAAGCAAG,0.167
9,TCCATTGAAATGCAAGCAAG,0.353
10,TAGAATGAAATGCAAGCAAG,0.349
11,TGAGCTGAAATGCAAGCAAG,0.0623
12,AATAGTGAAATGCAAGCAAG,0.155
13,GATAATGAAATGCAAGCAAG,0.136
14,ATAAGTGAAATGCAAGCAAG,0.112
15,ACTCTTGAAATGCAAGCAAG,0.126
16,CATATTGAAATGCAAGCAAG,0.0351
17,CAATCTGAAATGCAAGCAAG,0.0465
18,CCTAGTGAAATGCAAGCAAG,0.12
19,CTAAGTGAAATGCAAGCAAG,0.0807
20,GGGATTGAAATGCAAGCAAG,0.337
21,TTAATTGAAATGCAAGCAAG,0.161
22,TCAAATGAAATGCAAGCAAG,0.325
23,CATACTGAAATGCAAGCAAG,0.201
24,ACCGATGAAATGCAAGCAAG,0.192
25,GACTGTGAAATGCAAGCAAG,0.265
26,GCGTGTGAAATGCAAGCAAG,0.00987
27,CCGCTTGAAATGCAAGCAAG,0.00322
